Out of some 110,000 compounds screened, about 230 (0.21%) showed an effect of 50% or more. The list shows a part of the results.
Each compound was assayed against DPAP1 (Plasmodium falciparum, UniProt Q8IIJ9) (assay: primary screen, percent inhibition; read by cleavage of a fluorogenic dipeptide substrate; higher = more effect of the substance).
Parameters: species or system P. falciparum D10 trophozoite lysates; single well
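Note: 30 min substrate incubation versus DMSO and 10 µM JCP410 controls.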

DPAP1, sequence (Q8IIJ9 whole entry, looked up): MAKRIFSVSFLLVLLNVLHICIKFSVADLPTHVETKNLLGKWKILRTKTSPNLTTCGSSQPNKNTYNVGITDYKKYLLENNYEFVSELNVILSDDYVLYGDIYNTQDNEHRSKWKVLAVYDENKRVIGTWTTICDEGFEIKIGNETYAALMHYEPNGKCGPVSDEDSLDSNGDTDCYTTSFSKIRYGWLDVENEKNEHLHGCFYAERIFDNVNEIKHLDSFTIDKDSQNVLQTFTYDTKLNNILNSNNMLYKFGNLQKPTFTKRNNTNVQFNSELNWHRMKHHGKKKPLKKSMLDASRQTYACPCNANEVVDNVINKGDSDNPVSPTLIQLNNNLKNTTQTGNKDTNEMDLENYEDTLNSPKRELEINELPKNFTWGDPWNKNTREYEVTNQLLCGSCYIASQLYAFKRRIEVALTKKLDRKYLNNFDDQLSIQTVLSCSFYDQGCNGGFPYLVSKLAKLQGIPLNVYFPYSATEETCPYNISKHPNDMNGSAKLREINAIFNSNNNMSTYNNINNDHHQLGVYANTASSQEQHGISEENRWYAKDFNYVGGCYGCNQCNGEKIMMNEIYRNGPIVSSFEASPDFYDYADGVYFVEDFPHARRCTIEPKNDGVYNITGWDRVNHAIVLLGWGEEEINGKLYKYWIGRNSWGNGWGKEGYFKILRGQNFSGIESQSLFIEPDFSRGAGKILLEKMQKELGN

Compound	% Inhibition @ 10 uM [%]
Cc1cc(O)c(Cn2c3ccccc3c3ccccc32)cc1C	0.526
Cn1cc(/C=C2/SC(=O)N(CC(=O)N3CCN(c4ccccc4)CC3)C2=O)c2ccccc21	2.01
CC(CCc1ccc(O)cc1)Nc1ccccc1F (stereo not drawn)	-6
Cc1ccc(NC(=O)Nc2cccs2)nc1	0.0882
O=c1cccc2n1CC1CC2CN(Cc2nnc(-c3ccc4c(c3)OCO4)o2)C1 (stereo not drawn)	-5.05
CSC1=C(C#N)C(c2ccc(OCc3ccccc3)cc2)C2=C(O)CCCC2=N1 (stereo not drawn)	-5.08
Cc1ccc(C)c(CSc2nncn3c2cc2oc(C)cc23)c1	4.92
CC(C)C[C@H](NC(=O)N1CCC(Cc2ccccc2)CC1)C(=O)NCC#N	-0.207
CCOc1ccc(/C=C2/N=C(c3ccc(OC)c(Br)c3)OC2=O)cc1	2.28
C=CCOc1ccccc1CN(CC)CCN(CC)CC	-4.04
O=C(c1cc([N+](=O)[O-])cc([N+](=O)[O-])c1)N1CCCC1	-4.61
CCOc1ccc(CCNC(=O)c2cn(CC)c3nc(C)ccc3c2=O)cc1OCC	4.35
Cc1nn(CCCC(=O)N2CCN(c3ccccn3)CC2)c(=O)c2cc3sccc3n12	1.8
O=C(O)COc1ccc(Br)cc1C1C2=C(O)CCCC2=NC2=C1C(=O)CCC2 (stereo not drawn)	3.05
COc1ccc(-c2c(C)nn3c(O)cc(C(F)(F)F)nc23)cc1	0.132
Cc1ccc(NC(=O)c2cccnc2)cc1Cl	0.247
COC(=O)c1cc(S(=O)(=O)N(Cc2ccccc2OC)C2CCN(C)CC2)cn1C	0.0489
O=C(Cn1nc(-c2ccc(Cl)cc2)ccc1=O)NCCCN1CCOCC1	-3.58
COc1ccc(C(=O)Nc2cc(Cl)ccc2Cl)cc1N	-2.47
CN1CCN(C(=O)c2ccc(-n3cnc4cccnc43)cc2)CC1	6.18
CC(C)Sc1nnnn1-c1ccccc1	-6.55
CC1CCCN(C2CC(=O)N(c3ccc(N4C(=O)CC(N5CCCC(C)C5)C4=O)cc3)C2=O)C1 (stereo not drawn)	-6.4
CC(C)C[C@H](NC(=O)OCC1CCC1)C(=O)NCC#N	-1.41
O=C(NCC1CCCO1)C1CC2CCC1C2 (stereo not drawn)	-3.32

Compound	% Inhibition @ 10 uM [%]
O=C(CCN1CCc2ccccc2C(O)(c2ccccc2)C1)c1ccc2c(c1)OCCO2 (stereo not drawn)	-1.22
CCc1ccc(C2C(C#N)=C(N)OC3=C2C(=O)CC(c2ccccc2)C3)cc1 (stereo not drawn)	1.96
COCCCn1c(=N)c(C(=O)NC(C)c2ccccc2)cc2c(=O)n3ccccc3nc21 (stereo not drawn)	1.97
Cc1ccnc(-n2c(C)cc(/C=C3/NC(=O)N(c4ccccc4)C3=O)c2C)c1	-3.72
CCN(CC)C(=O)CN(Cc1ccc(Cl)c(Cl)c1)S(=O)(=O)c1ccc(Cl)cc1	-1.95
COc1ccc(C(=N)NOC(=O)c2ccc(C(C)(C)C)cc2)cc1	-5.08
C/C=C\CC(NC(=O)c1ccccc1)C(=O)NCC#N (stereo not drawn)	-6.98
O=C(/C=C(\Nc1ccc(S(=O)(=O)Nc2ccc3ccccc3c2)cc1)c1ccccc1)c1ccccc1	-0.736
Cn1c(=O)c2c(ncn2CC(=O)Nc2ccccc2)n(C)c1=O	13.5
CC(CC(C)C(=O)Nc1ccccc1)C(=O)O (stereo not drawn)	-2.65
Cc1scc(CN2CCN(Cc3ccc4c(c3)OCO4)CC2)c1C	3.1
COc1ccccc1-c1ccc(C(=O)N[C@@H](CC(C)C)C(=O)NCC#N)o1	-3.04
CCOC(=O)c1c(CN2CCCCC2C)oc2ccc(OC)cc12 (stereo not drawn)	4.08
N#Cc1cn(-c2ccccc2)nc1C(=O)c1ccccc1	-0.759
COc1ccc(C(=O)N2CCN(c3ccc(C)c(Cl)c3)CC2)cc1OC	0.475
COc1ccc(OC)c(/C=C2\N=C(c3cc(OC)c(OC)c(OC)c3)OC2=O)c1	-0.265
C=CCN1C(=O)N/C(=C/c2ccc(OC)c(C)c2)C1=O	-10.2
Cc1cccc(CNC(=O)C2CCCN(c3nn4c(=O)cc(C)nc4s3)C2)c1 (stereo not drawn)	-1.6
O=c1c(-c2ccccc2)c(O)cc(-c2ccncc2)n1-c1ccccc1	4
CC(NC(=O)/C(=C\c1ccccc1)NC(=O)c1ccco1)C(=O)O (stereo not drawn)	0.587
COc1cc(C(=O)Nc2c(-c3ccc(F)cc3)nc3ccccn23)cc(OC)c1OC	-0.58
CCOc1ccc(C2C(C#N)=C(N)N(c3nc[nH]n3)C3=C2C(=O)CC(C)(C)C3)cc1 (stereo not drawn)	3.99
C=CCOc1ccccc1/C=C1\C(=O)ON=C1c1ccccc1	-5.85
COc1cccc(C(=O)OCCN(C)Cc2ccccc2)c1	5.4

Compound	% Inhibition @ 10 uM [%]
Cc1cccc(NC(=O)Cc2ccc(-c3ccccc3)cc2)c1C	-3.03
COCCNC(=S)N(CCc1c(C)[nH]c2ccccc12)Cc1cc(OC)c(OC)c(OC)c1	2.17
O=C1CSc2ccc(S(=O)(=O)Nc3ccccc3)cc2N1	0.188
Cc1ccc(NC(=O)Cn2ncc3c2-c2cc(C)ccc2OC3)nc1	-3.84
CC(NC(=O)c1ccc(CS(=O)(=O)c2ccc(Cl)cc2)o1)c1ccccc1 (stereo not drawn)	-2.72
CC1CCCC(N2CC(=O)N(CCc3ccccc3)C(c3ccc(F)cc3)C2=O)C1C (stereo not drawn)	1.27
Cc1ccc(OCCCn2ccnc2)cc1C	-9.96
CC(C)CC(C(=O)NCC#N)c1cccc(-c2ccc(S(=O)(=O)N3CCN(CCO)CC3)s2)c1 (stereo not drawn)	1.52
COc1cc(C2C(C#N)=C(N)Oc3ccc4ccccc4c32)cc(OC)c1OC (stereo not drawn)	-7.55
COc1ccc(C(=O)NCc2cn(C)nc2C)cc1	4.61
COc1ccc(C(CC(=O)Nc2cccnc2)N2Cc3ccccc3C2=O)cc1 (stereo not drawn)	-8.48
CCOC(=O)c1ccc(CNC(=O)[C@H](Cc2ccccc2)N2Cc3ccccc3C2=O)cc1	1.26
CC(C)COc1ccccc1O	1.76
CCn1cc(/C=C(\NC(=O)c2cc(OC)c(OC)c(OC)c2)C(=O)NC(C)C)c2ccccc21	-1.74
O=C(Nc1ccc(F)c(Cl)c1)c1cccc(OC(F)F)c1	0.709
O=C(Cn1c(=O)c2cccn2c2cccnc21)NCCCN1CCc2ccccc2C1	-2.97
COCCCNc1nc2ccc(C)cc2n2nnnc12	-8.88
CCOc1cc(/C=C2/S/C(=N/c3ccccc3)N(C)C2=O)ccc1OC	5.37
CCOC(=O)C(C#N)=C1CCCCC1	1.42
O=C(CN1C(=O)c2cccc3cccc1c23)Nc1ccc(S(=O)(=O)Nc2ccc(Cl)cc2)cc1	6.15
CCCCCNC(=O)c1ccc2c(c1)nc(C)n2-c1cc(C)ccc1OC	-7.73
O=C1c2oc3ccccc3c(=O)c2C(c2ccc(O)cc2)N1Cc1ccccc1Cl (stereo not drawn)	-1.33
CCCCNc1nc(-c2ccccc2)nc(-n2ccnc2)n1	-6.28
CCCn1c(CCC(=O)NC2CCN(C(=O)OCC)CC2)nc2cccnc21	-9.07

Compound	% Inhibition @ 10 uM [%]
Cc1sc2ccc3ccccc3c2[n+]1CCC(C)S(=O)(=O)O (stereo not drawn)	-1.93
COc1ccccc1OCC(=O)Nc1ccccc1C(=O)NC(C)c1ccccc1 (stereo not drawn)	5.99
Cc1sc2nc(SCc3ccc(C(=O)NCCO)cc3)nc(O)c2c1C	-0.339
Nc1nc(/C=C/c2cccc([N+](=O)[O-])c2)cc(/C=C/c2cccc([N+](=O)[O-])c2)n1	-0.999
CCOc1ccc(C2C3=C(CC(C)(C)CC3=O)N(CCOC)C3=C2C(=O)CC(C)(C)C3)cc1OCC	2.33
Cc1ccc(N2C(=O)NC(=O)/C(=C/Nc3ccccc3O)C2=O)cc1C	-3.03
Cc1ccc(S(=O)(=O)N(CC(=O)NCc2cccnc2)Cc2ccc(Cl)c(Cl)c2)cc1	2.17
Cc1ccc(C)c(Cn2c(C)c(CNCc3ccco3)c(C(=O)O)c2C)c1	-3.67
CCC(=O)c1c(-c2ccccc2)nc2n(CCN(CC)CC)c3ccccc3n12	-3.14
CCOC(=O)c1ccc(Nc2nc(NC)nc(OC(C(F)(F)F)C(F)(F)F)n2)cc1	1.7
Cc1cc(C)c(S(=O)(=O)N(C)CC(=O)Nc2ccccc2F)c(C)c1	-2.65
O=C(N/C(=C\c1ccccc1)C(=O)N1CCOCC1)c1ccc(Br)o1	-0.0959
CC1CCN(c2c(NCc3ccc(C(=O)NC4CCCC(C)C4C)cc3)c(=O)c2=O)CC1 (stereo not drawn)	1.15
O=S(=O)(Nc1ccc(F)cc1)c1ccc2c(c1)OCCO2	-2.6
O=C(CN1C(=O)C2CCCN2C1=O)N1CCN(c2cccc(Cl)c2)CC1 (stereo not drawn)	-5.81
CCOC(=O)c1ccc(-c2ccc(/C=C(\C#N)c3nn(CCO)c(N)c3C#N)o2)cc1	3.04
COc1ccc(C(=O)CSc2nc(-c3ccc(Cl)cc3)c[nH]2)cc1	9.11
COc1ccc(-c2noc(N3CCC(C(N)=O)CC3)n2)cc1OC	1.19
COc1cc(OC)cc(C2=N/C(=C/c3ccccc3)C(=O)O2)c1	-6.82
CCOc1ccccc1CNC(=O)CCn1c(=O)c2cccn2c2cccnc21	-7.94
COc1ccc(C2CC(=O)C3=C(C2)NC(=O)CC3c2cccc(O)c2)cc1OC (stereo not drawn)	5.86
Cc1nc2c(c(C)nn2-c2ccccc2)c(C)c1CCC(=O)NC(C)CCc1ccco1 (stereo not drawn)	-0.72
CS(=O)(=O)N1CCN(c2ccc(NC(=O)c3cccc4ccccc34)cc2)CC1	-2.29
COc1ccc(C(=O)/C=C/c2cccc([N+](=O)[O-])c2)c(OC)c1	-5.41

From publication PMC6919601, “Identification of Plasmodium dipeptidyl aminopeptidase allosteric inhibitors by high throughput screening” (PLoS ONE, 2019)
